Reference: PubChem BioAssay AID485360 (National Center for Advancing Translational Sciences (NCATS), 2010)
About 1,500 (0.65%) of roughly 230,000 compounds were called active. The inconclusive results got no clear call from the source; some entries with a clear call stand among them for comparison. Calls come from the whole dose curve; as a rule, active = well fitted inhibition curve with a large enough effect; inconclusive = small, poorly fitted or top-dose-only effect; inactive = no such curve, though single readings can be large or run the other way. Where the call is inconclusive, the potency comes from a doubtful curve fit.

Biological target: Lethal(3)malignant brain tumor-like protein 1 (Homo sapiens) (UniProt Q9Y468)
Sequence of UniProt Q9Y468 (Q9Y468 whole entry, looked up): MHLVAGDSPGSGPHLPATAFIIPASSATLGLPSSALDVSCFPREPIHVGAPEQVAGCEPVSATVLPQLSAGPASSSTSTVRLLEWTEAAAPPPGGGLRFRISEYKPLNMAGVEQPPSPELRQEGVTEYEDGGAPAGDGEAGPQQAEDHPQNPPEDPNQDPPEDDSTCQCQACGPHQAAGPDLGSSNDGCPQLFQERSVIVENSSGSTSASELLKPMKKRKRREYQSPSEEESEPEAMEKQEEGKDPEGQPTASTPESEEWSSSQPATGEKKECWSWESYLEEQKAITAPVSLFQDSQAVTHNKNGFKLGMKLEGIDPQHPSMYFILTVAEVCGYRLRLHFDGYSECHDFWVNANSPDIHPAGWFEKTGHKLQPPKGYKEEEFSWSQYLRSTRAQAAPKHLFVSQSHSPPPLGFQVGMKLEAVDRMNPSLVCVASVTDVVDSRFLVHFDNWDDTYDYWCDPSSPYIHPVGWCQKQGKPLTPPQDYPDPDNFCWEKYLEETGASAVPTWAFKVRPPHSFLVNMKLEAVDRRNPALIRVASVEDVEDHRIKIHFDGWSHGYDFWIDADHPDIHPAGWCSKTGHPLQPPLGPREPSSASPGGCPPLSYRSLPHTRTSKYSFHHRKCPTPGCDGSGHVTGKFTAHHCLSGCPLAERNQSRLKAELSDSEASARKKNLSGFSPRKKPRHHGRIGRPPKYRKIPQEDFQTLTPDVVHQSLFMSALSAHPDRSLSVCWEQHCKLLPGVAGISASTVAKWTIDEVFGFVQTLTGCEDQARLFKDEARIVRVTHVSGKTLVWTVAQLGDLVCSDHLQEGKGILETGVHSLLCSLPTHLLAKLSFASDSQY
Assay: qHTS Assay for the Inhibitors of L3MBTL1; note: nearly all actives have a fitted effect of over 60% in size
Details: AlphaScreen L3MBTL1–H3K9me1 peptide binding; activity, negative = inhibition: at 57.1 µM (top of the series)
Method in brief: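 Displacement of a biotinylated histone H3(1-15) peptide monomethylated at Lys9 (75 nM) from L3MBTL1 (50 nM) was measured by AlphaScreen after a 30 min room-temperature compound incubation; cefsulodin titration served as intraplate control.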
% is set by controls: 0 for no effect and ±100 for the full control effect; potency is the fitted concentration of half-maximal effect; tags give direction and shape of the fitted curve.

Row | Compound | Potency | activity, negative = inhibition
1 | O=c1c2c3c(sc2[nH]c(=S)n1Cc1ccco1)CCC3 | active: 25.1 µM | 
2 | COc1ccccc1N1CCN(C(=O)c2ccc3[nH]c4c(c3c2)CCCC4)CC1 |  | inactive: -19.5%
3 | C=CCn1c(SCc2n[nH]c(=S)n2-c2ccccc2)nnc1-c1ccccc1 |  | inactive: -3.13%
4 | COc1ccc(-c2nc3cc(C)ccn3c2NCc2ccc3c(c2)OCO3)cc1 | inconclusive: 4.47 µM [inhibitor, full curve, poor fit] | 
5 | Cc1ccc(NC(=O)CSCC(=O)Nc2ncc3c(n2)CC(c2ccco2)CC3=O)cc1 (stereo not given) | inconclusive: 39.8 µM [inhibitor, single point] | 
6 | COc1cc(OC)cc(C(=O)Nc2nnc(NC(=S)Nc3ccccc3)s2)c1 |  | inactive: 0.583%
7 | COc1ccc(/C=N/n2cncn2)cc1COc1ccc(NC(C)=O)cc1 |  | inactive: 0.653% [at 11.4 µM]
8 | CCN(CC)S(=O)(=O)c1cccc2cc(C(=O)O)c(O)cc12 |  | inactive: 8.65%
9 | COc1ccc(-c2csc(N(CCCN3CCOCC3)C(=O)CCl)n2)cc1 |  | inactive: 1.64%
10 | Cc1ccc(CCC(=O)Nc2nccs2)o1 | inconclusive: 22.4 µM [inhibitor, partial curve] | 
11 | O=C1COc2ccc(C(=O)COC(=O)CNC(=O)C3CCCCC3)cc2N1 | inconclusive: 39.8 µM [inhibitor, single point] | 
12 | CC(C)c1nn2c(=O)cc(O)nc2s1 | inconclusive: 39.8 µM [inhibitor, single point] | 
13 | CC1(C(=O)O)CCC(C(=O)N2CCOCC2)C1(C)C (stereo not given) | inconclusive: 35.5 µM [inhibitor, single point] | 
14 | N#CC(=C=[N-])c1nc2ccccc2nc1-[n+]1ccccc1 |  | inactive: -3.59%
15 | Cn1c(=O)[nH]c(=O)c2c1nc(SCCO)n2CCCc1ccccc1 |  | inactive: -5.09%
16 | CC(C)(C)N=C1C([N+](=O)[O-])=CC=C2C1=NC1(CCCCC1)N2O | inconclusive: 5.62 µM [inhibitor, full curve] | 
17 | COC(=O)CN1C(=S)N(c2ccc(Cl)cc2)C(=O)C1CC(=O)Nc1ccc(Cl)cc1 (stereo not given) | inconclusive: 6.31 µM [inhibitor, single point] | 
18 | O=c1sc(N2CCN(c3ccccc3F)CC2)nc2ccsc12 | inconclusive: 39.8 µM [inhibitor, single point] | 
19 | CC1(C)NC(=O)N(CCOCCOc2ccccc2-c2ccccc2)C1=O |  | inactive: -6.21%
20 | Cc1ccc2nc(NC(=O)c3ccc(Br)o3)sc2c1 | inconclusive: 3.98 µM [inhibitor, single point] | 
21 | S=C(Nc1ccccc1)N1CCn2cccc2C1c1cccnc1 (stereo not given) |  | inactive: -11.5%
22 | CCOc1cc(NC(=S)NCC2CCCO2)c(OCC)cc1NC(=O)c1ccccc1F (stereo not given) | inconclusive: 31.6 µM [inhibitor, single point] | 
23 | O=C(NCCc1c[nH]c2ccccc12)c1ccc2nc[nH]c2c1 | inconclusive: 25.1 µM [inhibitor, single point] | 
24 | CN1CCC2(CC1)N=C(c1ccc(F)cc1)C(=S)N2C(=O)c1ccccc1 | inconclusive: 0.708 µM [inhibitor, single point] | 

Row | Compound | Potency | activity, negative = inhibition
25 | CC(C)CCNC(=O)C12CN(Cc3ccccc3)CC1C(c1ccc([N+](=O)[O-])cc1)=NO2 (stereo not given) |  | inactive: -22.4%
26 | N#Cc1c(NC(=O)c2ccncc2)sc2c1CCC2 | inconclusive: 31.6 µM [inhibitor, single point] | 
27 | CCN1CCN(c2ccc(S(=O)(=O)N3CCOCC3)cc2NC(=O)/C=C/c2ccc(OC)c(OC)c2)CC1 |  | inactive: -6%
28 | CCSc1nnc(NC(=O)C2CC=CCC2C(=O)O)s1 (stereo not given) | inconclusive: 35.5 µM [inhibitor, single point] | 
29 | CCOc1cc(CNc2ccc(N(C)C)cc2)cc(Br)c1OCC(=O)NC(C)(C)C | inconclusive: 31.6 µM [inhibitor, single point] | 
30 | CC1(C)CC(=O)C(N=Nc2ccc(Br)cc2)=C(O)C1 |  | inactive: -9.86%
31 | COc1cc(/C=C2\SC(=S)N(NS(=O)(=O)c3ccc(C)cc3)C2=O)cc(OC)c1OC |  | inactive: -21.5%
32 | COc1cc(CNCc2ccccn2)ccc1OCc1c(Cl)cccc1Cl | inconclusive: 0.112 µM [inhibitor, full curve, poor fit] | 
33 | Cc1ccc(S(=O)(=O)N(C)C)cc1NC(=O)COC(=O)c1n[nH]c(=O)c2ccccc12 |  | inactive: 3.3%
34 | COc1cc(C=C2C(=O)c3ccccc3C2=O)ccc1O | inconclusive: 25.1 µM [inhibitor, partial curve] | 
35 | O=C(Nc1ccc(-c2noc(-c3cccs3)n2)cc1)c1cccnc1 | inconclusive: 5.01 µM [inhibitor, partial curve] | 
36 | CCSC1=N/C(=C\c2ccc3c(c2)OCO3)C(=O)S1 | inconclusive: 39.8 µM [inhibitor, single point] | 
37 | O=C(Cn1c(=O)n(Cc2ccco2)c(=O)c2c3c(sc21)CCCCC3)Nc1ccccc1 | inconclusive: 35.5 µM [inhibitor, single point] | 
38 | CCN1CCN(CC(O)COC(c2ccccc2)c2ccccc2)CC1 (stereo not given) | inconclusive: 25.1 µM [inhibitor, partial curve] | 
39 | C#CCOCCOCCOCCNc1nc(N2CCN(C(=O)[C@H]([C@@H](C)CC)n3cc([C@@H](N)CO)nn3)CC2)nc(N2CCN(C(=O)[C@H](Cc3ccc(O)cc3)n3cc([C@@H](N)CC(C)C)nn3)CC2)n1 | inconclusive: 15.8 µM [inhibitor, partial curve] | 
40 | Cn1c(=S)[nH]c2c(c1=O)C(C)(C)Cc1ccccc1-2 | inconclusive: 0.562 µM [inhibitor, full curve, poor fit] | 
41 | OC1(c2nc3ccccc3[nH]2)CCCCC1 |  | inactive: -1.41%
42 | COC(=O)c1cc(NC(=O)c2ccc(OC)cc2)c(=O)oc1C | inconclusive: 0.112 µM [inhibitor, full curve, poor fit] | 
43 | O=C(NCCc1nc2ccccc2[nH]1)c1ccc([N+](=O)[O-])cc1 | inconclusive: 6.31 µM [inhibitor, single point] | 
44 | C=CCn1c[n+](CC(=O)c2ccc(Br)s2)c2ccccc21 |  | inactive: -7.63%
45 | COc1ccc(N=C/C=C2/C=C(c3ccccc3)OC(C)(C)O2)cc1 | inconclusive: 17.8 µM [inhibitor, partial curve] | 
46 | Cc1oc(-c2ccc3c(c2)OCCO3)cc1C(=O)NCC(=O)O |  | inactive: 26.4%
47 | COc1cccc(C(=O)NCC(=O)OCC(=O)c2ccccc2)c1 |  | inactive: 2.07%
48 | CCOC(=O)CCC(=O)Nc1ncnc2c1C(c1ccccc1)c1c(ccc3ccccc13)O2 (stereo not given) | inconclusive: 2.24 µM [inhibitor, partial curve, poor fit] | 

Row | Compound | Potency | activity, negative = inhibition
49 | C=CCN=c1scc(-c2ccco2)n1/N=C/c1ccc(O)c(O)c1O | active: 17.8 µM | 
50 | O=C(/C=C/c1ccc(Br)cc1)c1ccc(NC(=O)c2ccco2)cc1 |  | inactive: -4.5%
51 | COc1cccc(NS(=O)(=O)c2ccc3[nH]cc(C(=O)NCCCOC(C)C)c(=O)c3c2)c1 | inconclusive: 39.8 µM [inhibitor, single point] | 
52 | Cc1ccc(-c2ccc(/C=N/N3C(=O)C4C5C=CC(C6CC56)C4C3=O)o2)c([N+](=O)[O-])c1 (stereo not given) |  | inactive: -20.8%
53 | CSCCC(NC=C1C(=O)OC(C)(C)OC1=O)C(=O)O (stereo not given) | inconclusive: 31.6 µM [inhibitor, single point] | 
54 | CCCC(=O)Nc1nc2ccc(S(=O)(=O)N3CCCCC3)cc2s1 | inconclusive: 4.47 µM [inhibitor, full curve, poor fit] | 
55 | Cc1ccc(-c2c3c([nH]c(=S)c2C#N)CCCC3)o1 | inconclusive: 39.8 µM [inhibitor, single point] | 
56 | CC(C)(C)c1ccc(C(=O)Nc2cccc(S(=O)(=O)NC3=NCCC3)c2)cc1 |  | inactive: -3.02%
57 | O=S(=O)(c1ccc(F)cc1)N1CCN(c2ncnc3c2cnn3-c2ccccc2)CC1 | inconclusive: 6.31 µM [inhibitor, single point] | 
58 | Cc1cc(N2CCCC2)c(F)cc1/C=C\[N+](=O)[O-] | inconclusive: 6.31 µM [inhibitor, single point] | 
59 | Cc1ccccc1NC(=S)NCc1ccc2[nH]c3c(c2c1)CCCC3 | inconclusive: 39.8 µM [inhibitor, single point] | 
60 | Cc1csc2nc(O)c(C(=O)NCc3ccc4c(c3)OCO4)c(=O)n12 | inconclusive: 28.2 µM [inhibitor, partial curve] | 
61 | CCCn1c(NC(=O)CN2C(=O)NC3(CCCC3)C2=O)nc2ccccc21 | inconclusive: 5.01 µM [inhibitor, single point] | 
62 | O=C(CNCc1cccc2ccccc12)Nc1ccccc1[N+](=O)[O-] | inconclusive: 10 µM [inhibitor, full curve] | 
63 | Cc1cccc(NC(=S)c2nc3ccccc3s2)c1 | inconclusive: 15.8 µM [inhibitor, partial curve] | 
64 | C/C(=N\NC(=O)c1ccco1)c1ccc(NC(=O)c2ccccc2)cc1 | inconclusive: 0.891 µM [inhibitor, full curve, poor fit] | 
65 | CC(=O)c1cc(C(=O)Nc2ccccc2C(=O)O)oc1C | inconclusive: 6.31 µM [inhibitor, single point] | 
66 | COc1ccc(OC)c(N2C(=O)[C@@H]3C(c4ccccc4Cl)=NO[C@@H]3C2=O)c1 | active: 3.55 µM | 
67 | CCCCN1C(=O)/C(=C/C=C2\SCCN2C)SC1=S | inconclusive: 3.55 µM [inhibitor, full curve, poor fit] | 
68 | O=C(NCCCn1ccnc1)C(=O)NCC1OCCCN1S(=O)(=O)c1ccccc1 (stereo not given) | inconclusive: 28.2 µM [inhibitor, single point] | 
69 | CCOc1ccccc1/C=c1\sc2nc(-c3ccco3)nn2c1=O | active: 15.8 µM | 
70 | Cc1ccc(S(=O)(=O)N2CCN(c3ncnc4scc(-c5ccccc5)c34)CC2)cc1 | inconclusive: 31.6 µM [inhibitor, single point] | 
